Reference: PubChem BioAssay AID485344 (National Center for Advancing Translational Sciences (NCATS), 2010)
Screen size: about 340,000 compounds; about 6,900 (2%) were called active. Rule as the data show it: active = inhibition above about 30%; inactive = below that, where a call was filed. This is a selection; strong and weak results do not stand in their true shares. Where no call is shown, the source filed none.

Biological target: D(2) dopamine receptor (Homo sapiens) (UniProt P14416)
Assay: HTS Assay for Allosteric Antagonists of the Human D2 Dopamine Receptor: Primary Screen for Antagonists; also: 0% is about no effect
Details: HEK293 TREx D2 cells, calcium flux, dopamine EC80; at 10 µM; stronger effect = higher value
How it was run: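 HEK293 T-REx D2 cells, tet-induced, calcium dye no-wash. Cpd pintool add, 180 s kinetic, then EC80 DA, 180 s kinetic. Ca flux read.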

Sequence of UniProt P14416 (P14416 whole entry, looked up): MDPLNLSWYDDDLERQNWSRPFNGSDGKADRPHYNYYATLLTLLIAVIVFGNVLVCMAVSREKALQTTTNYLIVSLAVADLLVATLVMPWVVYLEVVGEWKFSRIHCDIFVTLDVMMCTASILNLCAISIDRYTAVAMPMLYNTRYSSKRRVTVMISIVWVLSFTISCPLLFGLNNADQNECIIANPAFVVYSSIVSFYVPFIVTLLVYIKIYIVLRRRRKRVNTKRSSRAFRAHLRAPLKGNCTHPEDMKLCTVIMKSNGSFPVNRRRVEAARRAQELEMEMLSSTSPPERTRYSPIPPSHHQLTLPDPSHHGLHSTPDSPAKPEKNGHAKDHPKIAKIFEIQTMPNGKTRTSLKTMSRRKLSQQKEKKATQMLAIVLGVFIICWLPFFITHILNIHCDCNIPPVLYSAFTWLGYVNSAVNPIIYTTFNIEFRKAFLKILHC

Row | Structure (SMILES) | inhibition
1 | CC(C)N1CCc2c(sc(NC(=O)c3ccc(S(=O)(=O)N(C)C4CCCCC4)cc3)c2C(N)=O)C1 | 18.1%
2 | O=C(O)/C(=C\c1cccc(O)c1)c1ccc(S(=O)(=O)N2CCCC2)s1 | active: 41.6%
3 | COCCc1nn2c(=O)cc(COC(=O)c3ccco3)nc2s1 | 21.4%
4 | Cc1ccccc1CNC(=O)C(=O)NCC(c1ccc2c(c1)OCO2)N1CCOCC1 (stereo unspecified) | 27.7%
5 | CN(CCCNC(=O)Cn1ncc2c([nH]c3ccccc32)c1=O)Cc1ccccc1 | -21.4%
6 | Cc1ccccc1S(=O)(=O)Cc1ccc(C(=O)NCCc2ccccc2)o1 | -14.3%
7 | Cc1ccc2c(c1)-c1c(cnn1CC(=O)N1CCN(c3cc(C)ccc3C)CC1)CO2 | -14.7%
8 | CC1CCN(c2csc3ccc(F)cc3c2=O)CC1 | -3.08%
9 | COC(=O)c1cc(S(=O)(=O)N2CCN(c3cc(Cl)ccc3C)CC2)c[nH]1 | 17.9%
10 | CC1=C(C(N)=O)C(c2ccccc2F)n2nc(-c3ccc(Cl)cc3)nc2N1 (stereo unspecified) | 0.0331%
11 | Cc1ccc(CNC(=O)Cn2cc3c(n2)-c2c(oc(C(=O)N4CCOCC4)c2C)CC3)cc1 | 2.52%
12 | Cc1cc(C)c2oc(C(=O)Nc3c(C(=O)c4ccccc4)oc4ccccc34)cc(=O)c2c1 | -11%
13 | COc1ccccc1CNc1ncnc2c1c(-c1ccccc1)cn2-c1ccc(Br)cc1 | -6.26%
14 | O=c1cc(N2CCN(Cc3ccccc3)CC2)[nH]c(=O)n1-c1ccc(Br)cc1 | active: 38.2%
15 | CCN(CC)c1ccc(NC(=O)Cn2c3ncccc3c(=O)n2-c2ccccc2)c(C)c1 | 1.17%
16 | COc1cc2c(=O)c(C(=O)c3ccc(F)cc3)cn(Cc3cccc(F)c3)c2cc1OC | 18.9%
17 | Cc1ccc(C(=O)NCCC(C)C)cc1NC(=O)c1nsc2ccccc12 | 6.55%
18 | CCOc1ccc(-c2nc(C(N)=O)c3c(n2)n(-c2ccc4c(c2)OCO4)c(=O)n3CC)cc1 | 8.93%
19 | O=C(CN1CCN(Cc2ccc(F)cc2Cl)C1=O)NCCc1ccc(Cl)cc1 | 12.4%
20 | O=C1CN(C(=O)c2ccc(S(=O)(=O)N3CCCC3)cc2)C(c2ccccc2)c2cc(Cl)ccc2N1 (stereo unspecified) | -3.77%
21 | CCOc1ccc(C(=O)Nc2ccc3oc(-c4cccc5ccccc45)nc3c2)cc1 | -5.85%
22 | Cc1ccc(C(=O)c2cn(CC(=O)NCc3ccccc3)c3nc(C)ccc3c2=O)cc1 | 7.85%
23 | COc1ccc(OC)c(NC(=O)N2CC(C)Oc3ccc(C)cc32)c1 (stereo unspecified) | 16.3%
24 | Cc1ccc(O)c(Nc2nc3ccccc3c3nncn23)c1 | -0.48%

Row | Structure (SMILES) | inhibition
25 | COc1cccc(C(=O)Nc2ccc3nc4n(c(=O)c3c2)CCCCC4)c1 | 1.88%
26 | COc1ccc(C(=O)Nc2nc(-c3nnn(-c4ccc(F)cc4F)c3C)ns2)cc1 | -6.73%
27 | COc1ccc2c(c1)-c1ccccc1S(=O)(=O)N2C | active: 33.7%
28 | O=C(Nc1c(C(=O)c2ccccc2)oc2ccccc12)c1ccc(F)cc1 | -7.5%
29 | Cc1c(CN(C)C(=O)c2cc(-c3ccccc3)nc3ccc(Br)cc23)cnn1C | -5.15%
30 | COc1cc(CNCCSc2nnnn2C)ccc1OCc1ccccc1C | 14%
31 | Cc1ccccc1CNC(=O)c1ccc(NC(=O)N2CCCCc3ccccc32)cc1 | 12.2%
32 | CCCOc1ccc(C2=NC(c3ccncc3)=Nc3ccc(C)cc3N2)cc1 | -3.58%
33 | Cc1ccc(-c2n[nH]c3c2C(c2ccccc2Cl)N(c2ccc(C(=O)O)cc2)C3=O)cc1 (stereo unspecified) | 7.51%
34 | Cc1oc2ccc(NS(=O)(=O)c3ccc(F)cc3)cc2c1C(=O)O | 2.27%
35 | CSc1ncc(Cl)c(C(=O)Nc2c(C(=O)Nc3cccc(C)c3)oc3ccccc23)n1 | 5.83%
36 | Cc1ccccc1-c1noc(-c2ccc(N3CCC(C)CC3)c([N+](=O)[O-])c2)n1 | -10%
37 | CCc1ccccc1NC(=O)Cn1c(=O)n(Cc2ccccc2)c(=O)c2c(C)c(C(=O)N(C)C)sc21 | 16.5%
38 | CCOc1ccc(NC(=O)Cn2c(=O)cc(C)c3c(C)nn(C)c32)cc1 | 7.79%
39 | Cc1csc2nc(-c3cccc(NS(C)(=O)=O)c3)cn12 | -6.32%
40 | Cc1ccccc1CN1c2ccccc2-c2nc(SCC(=O)c3ccc(Cl)cc3)ncc2S1(=O)=O | 3.34%
41 | Cc1ccc(-c2nc(C)c(CCNC(=O)C(=O)Nc3cc(C)ccc3C)s2)cc1 | -3.2%
42 | CC1CCN(S(=O)(=O)c2cc(C(=O)NCc3ccc(N(C)C)cc3)n(C)c2)CC1 | 21.9%
43 | O=C(CN1C(=O)CC(c2ccco2)Sc2ccccc21)Nc1cccc(C(F)(F)F)c1 (stereo unspecified) | -5.08%
44 | CC(C)c1ccc(S(=O)(=O)c2cn(CC(=O)Nc3ccc(F)cc3)c3ccccc3c2=O)cc1 | 10.8%
45 | S=C1NC2(CCCCC2)Cc2ccccc21 | active: 32%
46 | CCc1ccc(CNC(=O)c2cnc(N3CCCCC3)c3ccccc23)cc1 | -20.7%
47 | COc1ccc(S(=O)(=O)Nc2cccc(-c3ccc(N4CCCCCC4)nn3)c2)cc1F | 1.81%
48 | COc1ccc(CCNC(=O)C(=O)Nc2ccc(C)c(C)c2)cc1 | -7.05%

Row | Structure (SMILES) | inhibition
49 | Brc1ccc(-c2cn3c(n2)SCC3)cc1 | active: 33.1%
50 | Cc1sc2ncn(CC(=O)N3CCN(c4ccccc4F)CC3)c(=O)c2c1S(=O)(=O)N1CCN(c2ncccn2)CC1 | 8.72%
51 | CCN(CC)C(=O)c1cc(S(=O)(=O)N2CCCCC2)c[nH]1 | active: 32.7%
52 | O=c1c(-c2cc(-c3ccc(Cl)cc3)nc3c2COc2ccccc2-3)coc2ccccc12 | -3.76%
53 | COc1ccccc1N1CCN(S(=O)(=O)c2c(C)[nH]c(C)c2C(=O)N2CCCC2)CC1 | active: 30.7%
54 | CCC(=O)N1CCc2cc(Br)cc(S(=O)(=O)CCC(=O)NCCc3ccc(C)cc3)c21 | 15.2%
55 | C=CCOc1ccccc1CN(C(=O)CCl)c1ccc2c(c1)OCO2 | active: 33%
56 | Cc1cc(F)ccc1NC(=O)C(C(C)C)N1Cc2ccccc2C1=O (stereo unspecified) | 8.68%
57 | COc1ccccc1NC(=O)c1nnn(-c2ccc(F)cc2)c1C | 17.5%
58 | COc1ccc(CCNCc2c(-c3ccccc3)n(C)c3ccccc23)cc1 | active: 45.6%
59 | CCc1ccccc1OCCSc1nc(-c2cccs2)nc2cc(=O)[nH]n12 | 2.86%
60 | CCCCCn1c(NCc2ccco2)nc2ccccc21 | active: 34%
61 | COc1ccc(C(=O)N2CC(=O)Nc3ccc(C)cc3C2c2ccc(F)cc2)c(OC)c1 (stereo unspecified) | -5.07%
62 | CC(=O)Nc1ccc(S(=O)(=O)NC2=NCN(C(C)C)CN2)cc1 | -18.6%
63 | COc1ccc(/C=C/C(=O)Nc2ccccc2C(=O)NCC(c2ccc(OC)cc2)N(C)C)cc1 (stereo unspecified) | active: 60.2%
64 | O=c1[nH]c2ccc(NCc3ccc(-c4ccccc4F)o3)cc2[nH]1 | 15.3%
65 | Cc1ccc(C(C)C)c(OCC(=O)Nc2cccc(-c3nc4ncccc4o3)c2)c1 | 4.24%
66 | CCOc1ccc(NC(=O)N(Cc2ccc(CC)cc2)Cc2cn[nH]c2-c2ccc(OC)cc2)cc1 | 9.43%
67 | CCOc1ccc(-c2cc3c(=O)n(Cc4nc(-c5ccc(OC)cc5OC)oc4C)ccn3n2)cc1Cl | -16.1%
68 | COc1cccc(Oc2nc3c(c(=O)n(Cc4ccccc4Cl)c(=O)n3C)n2C)c1 | 6.69%
69 | CCOc1ccc(C(=O)N2CCC(c3nc(-c4ccc(S(=O)(=O)N5CCCC5)cc4)no3)CC2)cc1 | 12.8%
70 | c1ccc(CSc2nnc(C3CCNCC3)o2)cc1 | -8.97%
71 | COC(=O)c1ccc(NC(=O)CCn2cccn2)cc1 | -5.97%
72 | COc1ccc(NC(=O)C2=C(C)Nc3c(C(=O)Nc4ccc(C)cc4)cnn3C2c2cc(OC)ccc2OC)cc1 (stereo unspecified) | 7.4%

Row | Structure (SMILES) | inhibition
73 | Cc1cc(C)c2oc(-c3cc(NC(=O)Cc4ccccc4)ccc3Cl)nc2c1 | -20%
74 | COc1cccc(NC(=O)Cn2c(=O)n(Cc3ccccc3)c(=O)c3c2c2cc(C)ccc2n3C)c1 | 4.49%
75 | CCCN1CCc2nc(SCC(=O)Nc3ccc(C)c(Cl)c3)[nH]c(=O)c2C1 | 17.2%
76 | CN(C)c1ccc(C2CC(c3c(O)n(C4CCCCC4)c(=O)[nH]c3=O)=Nc3ccccc3S2)cc1 (stereo unspecified) | 10.8%
77 | CCN(CC)S(=O)(=O)c1ccc2c(c1)N(CC(=O)NCc1ccc(F)cc1)C(=O)CO2 | -2.91%
78 | CCCOc1ccc(C2C(=O)N(C3CCCCCC3)CC(=O)N2Cc2ccc(OC)cc2)cc1OC (stereo unspecified) | -13.9%
79 | Cc1cc(N2CCN(c3cccc(C(F)(F)F)c3)CC2)n2nc(-c3ccccc3C)nc2n1 | -4.07%
80 | Cc1ccc2oc(=O)c3cnn(CC(=O)N4CCN(c5cccc(C(F)(F)F)c5)CC4)c3c2c1 | 11.4%
81 | O=S(=O)(c1cccc(C(F)(F)F)c1)N1CCC(Oc2ccc(-n3cnnn3)cc2)CC1 | 12.1%
82 | CCC(C)NC(=O)CSc1nc2c(sc3ccccc32)c(=O)n1CCc1ccccc1 (stereo unspecified) | 10.8%
83 | COc1ccc(C2C=C(c3ccccc3)Nc3nc(NS(=O)(=O)c4ccc(C)cc4)nn32)cc1 (stereo unspecified) | 26.1%
84 | Cc1c(C(=O)OC2CCCCC2)[nH]c2c1C(=O)CC(c1ccccc1)C2 (stereo unspecified) | 4.15%
85 | Cc1ccc(OCC(=O)N(Cc2ccc(Cl)cc2)CC2CCCO2)cc1C (stereo unspecified) | 0.237%
86 | O=C(Nc1ccccc1C(F)(F)F)Nc1c[nH]c(=O)[nH]c1=O | -6.23%
87 | COc1ccc(Nc2c(-c3ccco3)nc3cccc(C)n23)cc1 | 1.49%
88 | O=C(NCCC(=O)N1CCN(c2ccccn2)CC1)c1ccc(Br)cc1 | active: 57.6%
89 | Cc1ccc2c(C)c(C(=O)N3CCC(c4nc5ccccc5s4)CC3)oc2c1C | -12.8%
90 | COc1cc(OC)c(OC)cc1CN1CCc2nc(N3CCN(c4ccccc4F)CC3)ncc2C1 | -28.3%
91 | CCc1ccc(NC(=O)C2CCCN(S(=O)(=O)c3cccc4cccnc34)C2)cc1 (stereo unspecified) | -10.9%
92 | COc1ccc(S(=O)(=O)N2CCC(C(=O)NCCN3CCOCC3)CC2)cc1C | active: 34.2%
93 | Cc1ccc(CNC(=O)c2sc3ncnc(N(C)C4CCCCC4)c3c2C)cc1 | 2.01%
94 | COc1cc(NC(=O)Cn2cnc(S(=O)(=O)N3CCOCC3)c2)cc(OC)c1OC | active: 45.4%
95 | Cc1ccccc1NC(=O)C1CCN(S(=O)(=O)c2ccccc2)CC1 | -2.23%
96 | CCOC(=O)CNC(=O)CC(c1cc(OC)c(OC)c(OC)c1)N1Cc2ccccc2C1=O (stereo unspecified) | 12.1%
